According to publication PMC12820563, “FoxP3 forms a head-to-head dimer in vivo and stabilizes its multimerization on adjacent microsatellites”:
This is one part of the list.

target: T1, MBP-FoxP1dN (Mus musculus, UniProt P58462 326-579); assay: PD-seq (MBP pull-down with sequencing); 20 mM Tris-HCl pH 7.5, 100 mM NaCl, 1.5 mM MgCl2, 0.4 uM protein, 0.1 uM dsDNA library, 30 min, room temperature, amylose pull-down; high values mean tight binding; conditions: protein: recombinant; tags: His6-MBP; chain copies: 2; dsDNA, one strand shown
T1 sequence: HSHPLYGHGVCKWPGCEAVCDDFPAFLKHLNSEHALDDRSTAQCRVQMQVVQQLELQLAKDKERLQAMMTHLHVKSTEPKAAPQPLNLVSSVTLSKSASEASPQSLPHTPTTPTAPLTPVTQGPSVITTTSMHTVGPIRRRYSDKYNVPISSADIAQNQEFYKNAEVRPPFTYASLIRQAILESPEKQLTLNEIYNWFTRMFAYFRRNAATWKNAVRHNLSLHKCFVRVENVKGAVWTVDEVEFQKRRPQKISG
Summary of the method: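 E. coli-expressed mouse FoxP3 or FoxP1 fragment, N-terminus removed and tagged with His6-MBP, was used at 0.4 µM against 0.1 µM of a Klenow-filled degenerate double-stranded DNA library. After 30 min at room temperature in Tris pH 7.5 buffer with NaCl and MgCl2, complexes were pulled down on amylose resin and washed three times. Binding is pull-down over input reads-per-million enrichment from pooled replicates of the proteinase K-released, PCR-barcoded, Illumina-sequenced DNA.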

In order of rising binding signal:
1. GATGATTGTTCTCCCAGCTGATGAATTGGACGGGTCGAGTAAACAAATTTTCCTAATCTTTCTGTTCAAGCGCCATCTAC  0.71 RPM ratio (pull-down/input)
2. GATGATTGTTCTCCCAGCTGATGAATTAGCGGGCTCGAGTAAACAAATTTTCCTAATCTTTCTGTTCAAGCGCCATCTAC  0.765 RPM ratio (pull-down/input)
3. GATGATTGTTCTCCCAGCTGATGAATTAAGGTTCTCGAGTAAACAAATTTTCCTAATCTTTCTGTTCAAGCGCCATCTAC  0.765 RPM ratio (pull-down/input)
4. GATGATTGTTCTCCCAGCTGATGAATTTCTAGAGTCGAGTAAACAAATTTTCCTAATCTTTCTGTTCAAGCGCCATCTAC  0.778 RPM ratio (pull-down/input)
5. GATGATTGTTCTCCCAGCTGATGAATTGGCACGGTCGAGTAAACAAATTTTCCTAATCTTTCTGTTCAAGCGCCATCTAC  0.782 RPM ratio (pull-down/input)
6. GATGATTGTTCTCCCAGCTGATGAATTTTCGGCTTCGAGTAAACAAATTTTCCTAATCTTTCTGTTCAAGCGCCATCTAC  0.785 RPM ratio (pull-down/input)
7. GATGATTGTTCTCCCAGCTGATGAATTGGAAGCCTCGAGTAAACAAATTTTCCTAATCTTTCTGTTCAAGCGCCATCTAC  0.788 RPM ratio (pull-down/input)
8. GATGATTGTTCTCCCAGCTGATGAATTCGTCTGCTCGAGTAAACAAATTTTCCTAATCTTTCTGTTCAAGCGCCATCTAC  0.792 RPM ratio (pull-down/input)
9. GATGATTGTTCTCCCAGCTGATGAATTCCTCCGATCGAGTAAACAAATTTTCCTAATCTTTCTGTTCAAGCGCCATCTAC  0.793 RPM ratio (pull-down/input)
10. GATGATTGTTCTCCCAGCTGATGAATTCTTCGATTCGAGTAAACAAATTTTCCTAATCTTTCTGTTCAAGCGCCATCTAC  0.798 RPM ratio (pull-down/input)
11. GATGATTGTTCTCCCAGCTGATGAATTTCGCCAGTCGAGTAAACAAATTTTCCTAATCTTTCTGTTCAAGCGCCATCTAC  0.805 RPM ratio (pull-down/input)
12. GATGATTGTTCTCCCAGCTGATGAATTAGACTGCTCGAGTAAACAAATTTTCCTAATCTTTCTGTTCAAGCGCCATCTAC  0.812 RPM ratio (pull-down/input)
13. GATGATTGTTCTCCCAGCTGATGAATTAGGGGATTCGAGTAAACAAATTTTCCTAATCTTTCTGTTCAAGCGCCATCTAC  0.815 RPM ratio (pull-down/input)
14. GATGATTGTTCTCCCAGCTGATGAATTGAGAACGTCGAGTAAACAAATTTTCCTAATCTTTCTGTTCAAGCGCCATCTAC  0.826 RPM ratio (pull-down/input)
15. GATGATTGTTCTCCCAGCTGATGAATTGAACCCGTCGAGTAAACAAATTTTCCTAATCTTTCTGTTCAAGCGCCATCTAC  0.83 RPM ratio (pull-down/input)
16. GATGATTGTTCTCCCAGCTGATGAATTGAACATTTCGAGTAAACAAATTTTCCTAATCTTTCTGTTCAAGCGCCATCTAC  0.83 RPM ratio (pull-down/input)
17. GATGATTGTTCTCCCAGCTGATGAATTTCCCGCTTCGAGTAAACAAATTTTCCTAATCTTTCTGTTCAAGCGCCATCTAC  0.84 RPM ratio (pull-down/input)
18. GATGATTGTTCTCCCAGCTGATGAATTAAGCCAGTCGAGTAAACAAATTTTCCTAATCTTTCTGTTCAAGCGCCATCTAC  0.849 RPM ratio (pull-down/input)
19. GATGATTGTTCTCCCAGCTGATGAATTTAGCCGATCGAGTAAACAAATTTTCCTAATCTTTCTGTTCAAGCGCCATCTAC  0.85 RPM ratio (pull-down/input)
20. GATGATTGTTCTCCCAGCTGATGAATTTTTTGGCTCGAGTAAACAAATTTTCCTAATCTTTCTGTTCAAGCGCCATCTAC  0.855 RPM ratio (pull-down/input)
21. GATGATTGTTCTCCCAGCTGATGAATTGAACGTGTCGAGTAAACAAATTTTCCTAATCTTTCTGTTCAAGCGCCATCTAC  0.863 RPM ratio (pull-down/input)
22. GATGATTGTTCTCCCAGCTGATGAATTTTCCTGCTCGAGTAAACAAATTTTCCTAATCTTTCTGTTCAAGCGCCATCTAC  0.865 RPM ratio (pull-down/input)
23. GATGATTGTTCTCCCAGCTGATGAATTTGGTCGCTCGAGTAAACAAATTTTCCTAATCTTTCTGTTCAAGCGCCATCTAC  0.873 RPM ratio (pull-down/input)
24. GATGATTGTTCTCCCAGCTGATGAATTGACTGGATCGAGTAAACAAATTTTCCTAATCTTTCTGTTCAAGCGCCATCTAC  0.882 RPM ratio (pull-down/input)
25. GATGATTGTTCTCCCAGCTGATGAATTGGGAACGTCGAGTAAACAAATTTTCCTAATCTTTCTGTTCAAGCGCCATCTAC  0.883 RPM ratio (pull-down/input)
26. GATGATTGTTCTCCCAGCTGATGAATTTCATCCGTCGAGTAAACAAATTTTCCTAATCTTTCTGTTCAAGCGCCATCTAC  0.884 RPM ratio (pull-down/input)
27. GATGATTGTTCTCCCAGCTGATGAATTTCGTGTCTCGAGTAAACAAATTTTCCTAATCTTTCTGTTCAAGCGCCATCTAC  0.885 RPM ratio (pull-down/input)
28. GATGATTGTTCTCCCAGCTGATGAATTCATTGAATCGAGTAAACAAATTTTCCTAATCTTTCTGTTCAAGCGCCATCTAC  0.889 RPM ratio (pull-down/input)
29. GATGATTGTTCTCCCAGCTGATGAATTGAGTGCTTCGAGTAAACAAATTTTCCTAATCTTTCTGTTCAAGCGCCATCTAC  0.897 RPM ratio (pull-down/input)
30. GATGATTGTTCTCCCAGCTGATGAATTGGAGCGATCGAGTAAACAAATTTTCCTAATCTTTCTGTTCAAGCGCCATCTAC  0.898 RPM ratio (pull-down/input)
31. GATGATTGTTCTCCCAGCTGATGAATTCTGTTCATCGAGTAAACAAATTTTCCTAATCTTTCTGTTCAAGCGCCATCTAC  0.902 RPM ratio (pull-down/input)
32. GATGATTGTTCTCCCAGCTGATGAATTATCGAGATCGAGTAAACAAATTTTCCTAATCTTTCTGTTCAAGCGCCATCTAC  0.904 RPM ratio (pull-down/input)
33. GATGATTGTTCTCCCAGCTGATGAATTCTACTACTCGAGTAAACAAATTTTCCTAATCTTTCTGTTCAAGCGCCATCTAC  0.905 RPM ratio (pull-down/input)
34. GATGATTGTTCTCCCAGCTGATGAATTCAAACGTTCGAGTAAACAAATTTTCCTAATCTTTCTGTTCAAGCGCCATCTAC  0.905 RPM ratio (pull-down/input)
35. GATGATTGTTCTCCCAGCTGATGAATTTGCGAGTTCGAGTAAACAAATTTTCCTAATCTTTCTGTTCAAGCGCCATCTAC  0.91 RPM ratio (pull-down/input)
36. GATGATTGTTCTCCCAGCTGATGAATTCATACTGTCGAGTAAACAAATTTTCCTAATCTTTCTGTTCAAGCGCCATCTAC  0.925 RPM ratio (pull-down/input)
37. GATGATTGTTCTCCCAGCTGATGAATTGCTGCGGTCGAGTAAACAAATTTTCCTAATCTTTCTGTTCAAGCGCCATCTAC  0.932 RPM ratio (pull-down/input)
38. GATGATTGTTCTCCCAGCTGATGAATTTAGTCTTTCGAGTAAACAAATTTTCCTAATCTTTCTGTTCAAGCGCCATCTAC  0.944 RPM ratio (pull-down/input)
39. GATGATTGTTCTCCCAGCTGATGAATTTCTTCTATCGAGTAAACAAATTTTCCTAATCTTTCTGTTCAAGCGCCATCTAC  0.948 RPM ratio (pull-down/input)
40. GATGATTGTTCTCCCAGCTGATGAATTATGATCTTCGAGTAAACAAATTTTCCTAATCTTTCTGTTCAAGCGCCATCTAC  0.948 RPM ratio (pull-down/input)
41. GATGATTGTTCTCCCAGCTGATGAATTGCAGGCCTCGAGTAAACAAATTTTCCTAATCTTTCTGTTCAAGCGCCATCTAC  0.952 RPM ratio (pull-down/input)
42. GATGATTGTTCTCCCAGCTGATGAATTCTCATGATCGAGTAAACAAATTTTCCTAATCTTTCTGTTCAAGCGCCATCTAC  0.956 RPM ratio (pull-down/input)
43. GATGATTGTTCTCCCAGCTGATGAATTCATGAATTCGAGTAAACAAATTTTCCTAATCTTTCTGTTCAAGCGCCATCTAC  0.965 RPM ratio (pull-down/input)
44. GATGATTGTTCTCCCAGCTGATGAATTAGTGTTCTCGAGTAAACAAATTTTCCTAATCTTTCTGTTCAAGCGCCATCTAC  0.976 RPM ratio (pull-down/input)
45. GATGATTGTTCTCCCAGCTGATGAATTGAATTAATCGAGTAAACAAATTTTCCTAATCTTTCTGTTCAAGCGCCATCTAC  0.98 RPM ratio (pull-down/input)
46. GATGATTGTTCTCCCAGCTGATGAATTGAATTGTTCGAGTAAACAAATTTTCCTAATCTTTCTGTTCAAGCGCCATCTAC  0.984 RPM ratio (pull-down/input)
47. GATGATTGTTCTCCCAGCTGATGAATTAGTTACCTCGAGTAAACAAATTTTCCTAATCTTTCTGTTCAAGCGCCATCTAC  0.984 RPM ratio (pull-down/input)
48. GATGATTGTTCTCCCAGCTGATGAATTCACTAAATCGAGTAAACAAATTTTCCTAATCTTTCTGTTCAAGCGCCATCTAC  0.989 RPM ratio (pull-down/input)
49. GATGATTGTTCTCCCAGCTGATGAATTGAGGCACTCGAGTAAACAAATTTTCCTAATCTTTCTGTTCAAGCGCCATCTAC  1.04 RPM ratio (pull-down/input)
50. GATGATTGTTCTCCCAGCTGATGAATTTAGTACTTCGAGTAAACAAATTTTCCTAATCTTTCTGTTCAAGCGCCATCTAC  1.04 RPM ratio (pull-down/input)
51. GATGATTGTTCTCCCAGCTGATGAATTACATGGCTCGAGTAAACAAATTTTCCTAATCTTTCTGTTCAAGCGCCATCTAC  1.05 RPM ratio (pull-down/input)
52. GATGATTGTTCTCCCAGCTGATGAATTTAGACGCTCGAGTAAACAAATTTTCCTAATCTTTCTGTTCAAGCGCCATCTAC  1.05 RPM ratio (pull-down/input)
53. GATGATTGTTCTCCCAGCTGATGAATTGATTGATTCGAGTAAACAAATTTTCCTAATCTTTCTGTTCAAGCGCCATCTAC  1.08 RPM ratio (pull-down/input)
54. GATGATTGTTCTCCCAGCTGATGAATTACAGGCTTCGAGTAAACAAATTTTCCTAATCTTTCTGTTCAAGCGCCATCTAC  1.09 RPM ratio (pull-down/input)
55. GATGATTGTTCTCCCAGCTGATGAATTTTTCTTGTCGAGTAAACAAATTTTCCTAATCTTTCTGTTCAAGCGCCATCTAC  1.1 RPM ratio (pull-down/input)
56. GATGATTGTTCTCCCAGCTGATGAATTCTCGCATTCGAGTAAACAAATTTTCCTAATCTTTCTGTTCAAGCGCCATCTAC  1.16 RPM ratio (pull-down/input)
57. GATGATTGTTCTCCCAGCTGATGAATTGTATTCCTCGAGTAAACAAATTTTCCTAATCTTTCTGTTCAAGCGCCATCTAC  1.17 RPM ratio (pull-down/input)
58. GATGATTGTTCTCCCAGCTGATGAATTCTATGTATCGAGTAAACAAATTTTCCTAATCTTTCTGTTCAAGCGCCATCTAC  1.27 RPM ratio (pull-down/input)
59. GATGATTGTTCTCCCAGCTGATGAATTAAATGTTTCGAGTAAACAAATTTTCCTAATCTTTCTGTTCAAGCGCCATCTAC  1.3 RPM ratio (pull-down/input)
60. GATGATTGTTCTCCCAGCTGATGAATTTATACCATCGAGTAAACAAATTTTCCTAATCTTTCTGTTCAAGCGCCATCTAC  1.3 RPM ratio (pull-down/input)
61. GATGATTGTTCTCCCAGCTGATGAATTACATAAATCGAGTAAACAAATTTTCCTAATCTTTCTGTTCAAGCGCCATCTAC  1.64 RPM ratio (pull-down/input)
62. GATGATTGTTCTCCCAGCTGATGAATTACTGTTATCGAGTAAACAAATTTTCCTAATCTTTCTGTTCAAGCGCCATCTAC  1.66 RPM ratio (pull-down/input)
63. GATGATTGTTCTCCCAGCTGATGAATTATTGCTTTCGAGTAAACAAATTTTCCTAATCTTTCTGTTCAAGCGCCATCTAC  1.74 RPM ratio (pull-down/input)
